# Results published in the antibiotic and cytotoxicity screens of Wong et al. (2023).
# The other results are listed elsewhere or left out.
# Test system: HSkMC (human skeletal muscle cells)
# Assay: cytotoxicity call (relative viability < 0.9)
# Conditions: 10 µM
row,SMILES,cytotoxicity call
1,COc1ccc(NC(=O)Nc2ccc3c(c2)C(=O)N([C@H](C)CO)C[C@H](C)[C@H](CN(C)C(=O)NC2CCCCC2)OCCCC[C@@H](C)O3)cc1,inactive
2,COc1ccc(S(=O)(=O)N(C)C[C@@H]2OCCCC[C@@H](C)Oc3ccc(NC(=O)Nc4cccc5ccccc45)cc3C(=O)N([C@@H](C)CO)C[C@H]2C)cc1,inactive
3,C[C@@H]1CCCCO[C@H](CN(C)Cc2ccncc2)[C@H](C)CN([C@H](C)CO)C(=O)c2cc(NC(=O)Cc3ccccc3)ccc2O1,inactive
4,Cc1[nH]c(=O)[nH]c(=O)c1S(=O)(=O)N1CCOCC1,inactive
5,COc1ccc(S(=O)(=O)N(C)C[C@H]2OCCCC[C@H](C)Oc3ccc(NC(=O)Nc4ccc(F)cc4)cc3C(=O)N([C@H](C)CO)C[C@@H]2C)cc1,inactive
6,O=C(O)[C@@H]1CCCN1,inactive
7,Cc1noc(C)c1NC(=O)Nc1ccc2c(c1)C(=O)N([C@H](C)CO)C[C@@H](C)[C@H](CN(C)S(=O)(=O)c1ccc(F)cc1)OCCCC[C@H](C)O2,inactive
8,CC(C)(C)S(=O)N1Cc2cc(C(=O)NCc3ccc(Oc4ccccc4)cc3)nc(-c3cccc(C#CCC4CCCC4)c3)c2[C@@H]1CCO (stereo not given in full),active
9,CNC(=O)C[C@@H]1CC[C@@H]2[C@H](COC[C@H](O)CN2C(=O)Nc2ccc3c(c2)OCO3)O1,inactive
10,C[C@H]1CCCCO[C@@H](CN(C)C(=O)Nc2cccc3ccccc23)[C@@H](C)CN([C@@H](C)CO)C(=O)c2cc(NS(=O)(=O)c3cn(C)cn3)ccc2O1,active
11,C[C@@H]1CN([C@@H](C)CO)C(=O)Cc2cc(NC(=O)Cc3ccccc3)ccc2O[C@H]1CN(C)S(=O)(=O)c1cn(C)cn1,inactive
12,Cc1noc(C)c1NC(=O)N(C)C[C@H]1OCCCC[C@H](C)Oc2ccc(NS(=O)(=O)c3ccc(Cl)cc3)cc2C(=O)N([C@@H](C)CO)C[C@H]1C,inactive
13,O=C(CCCCCCC(=O)NO)NO,inactive
14,Cc1ccc(NC(=O)COc2ccc(S(=O)(=O)N3CCOCC3)cc2)cc1S(=O)(=O)N1CCCCCC1,inactive
15,COc1ccnc(C#N)c1,inactive
16,S=C1NCN(Cc2cccs2)CN1,inactive
17,O=C1OCC=C[C@H]2O[C@@]34C=CCN(CCN5CCOCC5)C(=O)[C@H]3N(CCCCCCO)C(=O)[C@@H]4[C@@H]12,inactive
18,C[C@H](CO)N1C[C@H](C)[C@H](CN(C)S(=O)(=O)c2cccs2)Oc2ccc(NS(=O)(=O)c3cccs3)cc2CC1=O,inactive
19,C[C@@H]1CCCCO[C@@H](CN(C)S(=O)(=O)c2ccccc2)[C@@H](C)CN([C@@H](C)CO)C(=O)c2cc(NC(=O)CCC(F)(F)F)ccc2O1,inactive
20,Cc1ccc(S(=O)(=O)Nc2ccc3c(c2)C(=O)N([C@H](C)CO)C[C@@H](C)[C@H](CN(C)Cc2ccc(Cl)c(Cl)c2)OCCCC[C@H](C)O3)cc1,inactive
21,O=C(Nc1ncc(SCCN2CCCC2)s1)[C@]1(c2ccc(S(=O)(=O)C3CC3)cc2)C[C@H]1C1CCCCC1,active
22,CNC[C@H]1COCCO1,inactive
23,Cc1ccc(S(=O)(=O)Nc2ccc3c(c2)CC(=O)N([C@H](C)CO)C[C@@H](C)[C@H](CN(C)Cc2ccc(Oc4ccccc4)cc2)O3)cc1,active
24,C[C@@H]1CN([C@H](C)CO)C(=O)c2cc(NC(=O)C3CCCCC3)ccc2O[C@@H](C)CCCCO[C@H]1CN(C)C(=O)Nc1cccc2ccccc12,inactive
25,C[C@@H]1CN([C@H](C)CO)S(=O)(=O)c2ccc(-c3cncnc3)cc2O[C@@H]1CN(C)C(=O)Cc1ccccc1,inactive
26,C[C@@H]1CCCCO[C@H](CN(C)C(=O)Nc2cccc3ccccc23)[C@@H](C)CN([C@H](C)CO)C(=O)c2cc(NC(=O)Nc3ccccc3)ccc2O1,inactive
27,C[C@@H]1CCCCO[C@H](CN(C)C(=O)NC2CCCCC2)[C@@H](C)CN([C@H](C)CO)C(=O)c2cc(NC(=O)CCCCCC(=O)Nc3ccccc3N)ccc2O1,inactive
28,COc1ccc(NC(=O)N(C)C[C@@H]2Oc3ccc(NC(=O)Nc4ccc(C(F)(F)F)cc4)cc3CC(=O)N([C@H](C)CO)C[C@H]2C)cc1,inactive
29,CC(=O)N[C@@H](CC(=O)O)C(=O)N[C@@H](CCC(=O)O)C(=O)O,inactive
30,C[C@@H]1CCCCO[C@@H](CN(C)C(=O)Nc2ccc(C(F)(F)F)cc2)[C@H](C)CN([C@H](C)CO)C(=O)c2cc(NC(=O)Nc3ccccc3)ccc2O1,inactive
